Laboratory results reported in PubChem BioAssay AID1468 (National Center for Advancing Translational Sciences (NCATS), 2008).
Screen size: about 280,000 compounds; about 1,100 (0.39%) were called active. Inconclusive means that the source gave no clear call. Such entries were picked first, then a sample of the others. Calls follow the shape of the dose curve; as a rule, active = well fitted inhibition curve with a large enough effect; inconclusive = small, poorly fitted or top-dose-only effect, or effect the other way; inactive = flat fitted curve, though single readings scatter. Where the call is inconclusive, the potency comes from a doubtful curve fit.

Target: Microtubule-associated protein tau (Homo sapiens) (UniProt P10636)
Chain of UniProt P10636 (P10636 whole entry, looked up): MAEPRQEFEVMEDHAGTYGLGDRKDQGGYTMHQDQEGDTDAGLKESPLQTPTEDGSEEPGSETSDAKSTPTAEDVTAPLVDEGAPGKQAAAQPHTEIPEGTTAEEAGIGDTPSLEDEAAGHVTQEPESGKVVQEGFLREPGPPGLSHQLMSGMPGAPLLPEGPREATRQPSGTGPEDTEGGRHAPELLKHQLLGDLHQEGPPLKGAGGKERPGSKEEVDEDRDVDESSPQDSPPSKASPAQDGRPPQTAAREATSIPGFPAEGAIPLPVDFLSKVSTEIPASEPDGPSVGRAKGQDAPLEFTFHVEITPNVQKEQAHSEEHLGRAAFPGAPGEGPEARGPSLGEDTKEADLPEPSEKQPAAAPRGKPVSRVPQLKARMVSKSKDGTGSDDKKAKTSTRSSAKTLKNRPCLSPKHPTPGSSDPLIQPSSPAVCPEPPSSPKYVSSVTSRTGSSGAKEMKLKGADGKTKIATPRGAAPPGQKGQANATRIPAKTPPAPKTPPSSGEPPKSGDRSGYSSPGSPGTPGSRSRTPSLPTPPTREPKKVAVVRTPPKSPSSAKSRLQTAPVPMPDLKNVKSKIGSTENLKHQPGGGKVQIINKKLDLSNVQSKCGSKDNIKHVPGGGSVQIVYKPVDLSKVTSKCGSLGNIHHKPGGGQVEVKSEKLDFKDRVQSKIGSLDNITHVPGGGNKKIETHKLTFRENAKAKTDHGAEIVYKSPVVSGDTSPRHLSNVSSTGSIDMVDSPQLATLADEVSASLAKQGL
Assay: qHTS for Inhibitors of Tau Fibril Formation, Fluorescence Polarization; also: nearly all actives have a fitted effect of over 55% in size
Details: K18 P301L tau heparin fibrillization, Alexa594 FP, 6 h; series mostly up to 57.7 µM
How it was run: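 Compound effects on tau fibrillization are measured by Alexa 594 fluorescence polarization (ex 555, em 632 nm). K18 P301L tau is used at 15 uM with 0.24 uM labeled tracer, and 20 uM heparin induces aggregation over 6 hr at 37 C.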
Potency is read from the fitted curve at half-maximal effect; tags tell the direction and shape of the fitted curve.

Potency, inactive:
COc1cc2nc(CN(CCC(C)C)Cc3nc4cc(OC)c(OC)cc4c(=O)[nH]3)[nH]c(=O)c2cc1OC
Cc1ccc2nc(COc3ccccc3NC(=O)COc3ccc(F)cc3)cc(=O)n2c1
COc1ccccc1-n1c(C)cc(C=O)c1C
Cc1ccc(-n2c(SCC(=O)NCc3ccco3)nc3c(sc4ccccc43)c2=O)cc1
O=C(COC(=O)c1cncc(Br)c1)NCc1ccco1
Cc1ccc(Cl)cc1N1CCN(C(=O)C2CCC(CNS(=O)(=O)c3cccs3)CC2)CC1 (stereo not given)
Cc1c(C(=O)Nc2cccc(C(F)(F)F)c2)sc2nc[nH]c(=O)c12
Cc1c(NC(=S)N/C(=N/S(=O)(=O)c2ccc(Cl)cc2)c2ccccc2)c(=O)n(-c2ccccc2)n1C
O=C(Nc1ccc(N2CCCCC2)cc1)c1ccccn1
N#CC1=C(N)Oc2n[nH]c(-c3cccnc3)c2C1c1cc(F)ccc1F (stereo not given)
CC/C(=C\c1oc2cc3ccccc3cc2[n+]1CC)Nc1ccccc1

Potency, inconclusive:
COc1cc(Nc2nc(SCc3ccc(Cl)cc3)nc3ccccc23)cc(OC)c1 6.31 µM [inhibitor, partial curve]
CCOC(=O)c1c(-c2ccc(C)cc2)csc1NC(=O)c1cc(=O)c2cc(C)ccc2o1 35.5 µM [inhibitor, single point]
Cc1[nH]c2ccccc2c1-c1csc(NC(=O)CSCCO)n1 20 µM [activator, partial curve]
O=C(COC(=O)CCc1c[nH]c2ccccc12)NC(c1ccccc1)c1ccccc1 11.2 µM [activator, partial curve]
COc1ccccc1N/C=C(\C#N)c1nc2ccccc2[nH]1 6.31 µM [activator, full curve, poor fit]
COc1ccc(-c2nc(SCC(=O)Nc3ccc4c(c3)OCCO4)c(-c3ccc(F)cc3)[nH]2)cc1 44.7 µM [inhibitor, single point]
Cc1ccc(-n2c(=O)c3cccnc3n2CC(=O)Nc2cc(C)cc(C)c2)cc1 28.2 µM [inhibitor, single point]
C#CCSc1nncn1C(=O)/C=C/c1ccccc1 11.2 µM [inhibitor, partial curve]
Cc1ccccc1OCCn1cc(C(=O)C(=O)N2CCOCC2)c2ccccc21 44.7 µM [inhibitor, single point]
CC1(C)C(=O)C=C[C@@]2(C)C1C=C[C@@]1(C)C2CC[C@@]2(C)C(c3ccoc3)OC(=O)C3OC312 (stereo not given in full) 31.6 µM [inhibitor, single point]
CC(C)(C)C1CCc2c(sc(NC(=O)Cn3nnc(-c4ccccc4Cl)n3)c2C#N)C1 (stereo not given) 10 µM [inhibitor, partial curve]
CCOC(=O)c1ccc(NC(=O)Cn2cc(C(=O)C3CC3)c3ccccc32)cc1 14.1 µM [inhibitor, partial curve, poor fit]
O=C1NCC(COCc2ccco2)O1 (stereo not given) 28.2 µM [inhibitor, partial curve]
Cc1cc(C)n(-c2nc(C)c(C)c(=O)n2CC(=O)Nc2ccc([N+](=O)[O-])cc2)n1 7.94 µM [inhibitor, single point]
O=C(Cn1nc(-c2ccc(Cl)cc2)c2ccccc2c1=O)NCC1CCCO1 (stereo not given) 3.16 µM [inhibitor, partial curve, poor fit]
CCN(c1ccccc1)S(=O)(=O)c1ccc2[nH]cc(C(=O)NCCOC)c(=O)c2c1 1.12 µM [inhibitor, partial curve, poor fit]
C#CCOCCOCCOCCNc1nc(N2CCN(C(=O)C(Cc3ccc(O)cc3)n3cc(C(N)CC(C)C)nn3)CC2)nc(N2CCN(C(=O)C(Cc3cc4ccccc4[nH]3)n3cc(C(N)Cc4ccc(O)cc4)nn3)CC2)n1 (stereo not given) 1.12 µM [inhibitor, single point]
C=C1C(=O)O[C@@H]2[C@H]1[C@@H](OC(=O)/C(C)=C/C)C/C(C)=C\C(=O)/C=C(\C)[C@@H]2O 12.6 µM [inhibitor, partial curve]
COC(=O)c1ccc(C(NC(=O)OCc2ccccc2)/C(=C/[C@@H](C)C(=O)NCCc2c[nH]c3ccccc23)c2cccnc2)cc1 (stereo not given in full) 25.1 µM [activator, partial curve]
Cc1ccc(C(=O)N/C(=C\c2cccc([N+](=O)[O-])c2)C(=O)OCN2C(=O)c3ccccc3C2=O)cc1 44.7 µM [inhibitor, single point]
CCOc1ccc(NC(=O)Nc2cc(C)ccc2OC)cc1 0.282 µM [activator, partial curve, poor fit]
CCCCn1nc(C(=O)NC2=NCCS2)c2ccccc2c1=O 44.7 µM [inhibitor, single point]
COC(=O)c1ccc(C2Nc3c(C)cccc3-c3cc(C)nn32)cc1 (stereo not given) 12.6 µM [activator, partial curve, poor fit]
O=C(Cn1c(=O)oc2cc(S(=O)(=O)NCc3ccccc3)ccc21)Nc1cccc(F)c1 5.62 µM [inhibitor, full curve, poor fit]
COc1ccccc1CNc1nc2c(S(=O)(=O)c3ccc(C)c(C)c3)nnn2c2ccc(Cl)cc12 28.2 µM [inhibitor, partial curve]
C=CCNC(=O)c1ccccc1NC(=O)c1ccc(Cl)c(S(=O)(=O)Nc2ccccc2)c1 14.1 µM [inhibitor, partial curve]
C/C(=N\N=C(/N)SC1CC(=O)N(c2cccc(Cl)c2)C1=O)c1cccs1 (stereo not given) 44.7 µM [inhibitor, single point]

Potency, active:
CCc1cc(SC#N)cc(CC)c1NC(=O)CCl 7.08 µM
COc1ccc(NS(=O)(=O)c2ccc3nc(COc4cccc5ccccc45)[nH]c3c2)cc1 22.4 µM
